Reference: PubChem BioAssay AID743279 (National Center for Advancing Translational Sciences (NCATS), 2014)
Out of some 360,000 compounds screened, about 17,000 (4.7%) were called active. The shares of active, inactive and inconclusive entries below differ from those in the screen. Cut-off read from the data, not from the text of the source: active = activity change below about -50%; inconclusive = mostly about -30% to -49%; inactive = weaker than that.

Experiment: qHTS for Inhibitors of Inflammasome Signaling: IL-1-beta AlphaLISA Primary Screen
Conditions: THP-1 LPS/ATP IL-1B secretion, 16 h; at 57.5 µM, active compounds read low
How it was run: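 Secreted IL-1B measured by AlphaLISA bead assay after 16 h compound exposure of THP-1 cells; compounds (final up to 57.5 uM) added 1 h before LPS (250 ng/mL) and ATP (1.25 mM) stimulation; lower signal means less secretion.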
% is set by controls: 0 for no effect and ±100 for the full control effect.

| Compound | activity change |
| --- | --- |
| COc1ccc2cc(CN(C(=O)Nc3ccccc3OC)C3CCCC3)c(=O)[nH]c2c1 | inconclusive: -36.8% |
| COc1ccc(C(C)(C)C)cc1NC(=O)Cn1cnnn1 | inactive: 8.78% |
| Cc1cc(C(=O)C(C)OC(=O)c2ccc(NC(=O)CC#N)cc2)c(C)n1-c1ccccc1 (stereo unspecified) | active: -56.4% |
| CCOC(=O)C(Oc1ccc(=O)n(-c2ccccc2)n1)C(C)=O (stereo unspecified) | inactive: -4.58% |
| COC(=O)c1ccc(CSc2nnc(-c3c[nH]c4ccccc34)n2-c2ccccc2)cc1 | inconclusive: -30.6% |
| CN(C)CCOC(=O)CC12CC3CC(C1)CC(CC(=O)OCCN(C)C)(C3)C2 | inconclusive: -36% |
| O=C(Nc1ccc(C(=O)N2CCOCC2)cc1)Nc1cccc(Cl)c1 | inconclusive: -33.7% |
| O=C(c1ccc2nc(-c3ccccc3)c(-c3ccccc3)nc2c1)N1CCCCC1 | inconclusive: -33.3% |
| c1ccc2c(c1)NC1(CCCC1)n1c-2nc2ccccc21 | active: -79.3% |
| O=C(NC(=O)N1CCN(C(c2ccccc2)c2ccccc2)CC1)c1ccccc1 | inconclusive: -45.4% |
| COc1ccc2[nH]cc(CCNC(=O)Cc3c(F)cccc3Cl)c2c1 | inconclusive: -35.3% |
| C=C1C(=O)[C@@]23[C@H](O)C[C@@H]4C(C)(C)CC[C@H](O)[C@@]4(C)[C@@H]2CC[C@@H]1[C@H]3O | inconclusive: -38.2% |
| CCCCC(NC(=O)c1ccc(C#N)cc1)C(=O)NCCC (stereo unspecified) | inactive: 5.06% |
| CCOC(=O)c1sc2nc(C)n(CC(=O)NCC3CCCO3)c(=O)c2c1C (stereo unspecified) | inactive: -0.23% |
| Cc1ccc(-c2nc(CS(=O)(=O)CC(=O)NC3CCCCCC3)c(C)o2)cc1 | inconclusive: -40.6% |
| CCOc1ccc(Nc2nc(N)nc(CSC(=S)N3CCOCC3)n2)cc1 | inconclusive: -41.6% |
| CCOc1cccc(CN2CCC(n3nccc3NC(=O)CCCc3ccccc3)CC2)c1 | inconclusive: -46.3% |
| COc1cccc(-c2nc(-c3ccc4c(c3)NC(=O)CO4)cs2)c1 | inconclusive: -30.2% |
| CCOc1ccc(C(NC(=O)c2ccco2)c2ccc(OC)c(OC)c2)cc1 (stereo unspecified) | inactive: 16% |
| COc1ccc(S(=O)(=O)Nc2ccc3c(c2)n(C)c(=O)n3C)cc1OC | inconclusive: -33.8% |
| COc1cccc(-c2[nH]nc3c2C(c2ccoc2)C(C#N)=C(N)O3)c1 (stereo unspecified) | inactive: -14.3% |
| O=C1c2cccc3cccc(c23)C(=O)N1CCN1CCN(CC(O)COCc2ccc(Cl)cc2)CC1 (stereo unspecified) | inconclusive: -31.1% |

| Compound | activity change |
| --- | --- |
| O=C(CSc1nnc(-c2ccccc2)n1Cc1ccco1)Nc1ccc(S(=O)(=O)N2CCCC2)cc1 | inconclusive: -35.2% |
| CC(=O)c1ccc(Nc2cc(C)nc3ccc(C)cc23)cc1 | active: -104% |
| Fc1ccccc1CSc1nnc(Cn2cnc3ccccc32)n1-c1ccccc1 | inactive: -7.15% |
| O=C(NCCSc1ccccc1)c1ccccc1 | inactive: -17.4% |
| O=C(NCc1ccco1)c1ccc([N+](=O)[O-])cc1Cl | inactive: 15.3% |
| O=C(Nc1ccn(Cc2c(F)c(F)c(F)c(F)c2F)n1)c1cccc(Cn2cc([N+](=O)[O-])cn2)c1 | inconclusive: -30.9% |
| COCc1cc(C)nc2sc(C(=O)Nc3ccccc3C)c(N)c12 | inconclusive: -50% |
| COc1ccc(OC)c2c1C(=O)C(Cl)=C(Cl)C2=O | active: -117% |
| COc1cc(OC)c(OC)cc1/C=N/N(C)c1ccccc1 | active: -62.5% |
| CCN(CC)Cc1c(O)ccc2c([N+](=O)[O-])c(C)n(-c3ccc(OC)cc3)c12 | active: -74.8% |
| Cc1ccccc1OCC(=O)Nc1ccc(N2CCN(C(=O)C(C)C)CC2)c(Cl)c1 | inconclusive: -43.4% |
| CCSC1(SCC)N=C(N)C2(C#N)C(c3ccc(OC)c(OC)c3OC)C12C#N (stereo unspecified) | active: -115% |
| Cc1ccc(NC(=O)CCn2nnc3ccccc32)cc1 | inconclusive: -32.9% |
| COc1ccc(C2CC(c3ccc4ccccc4c3)=NN2C(=O)CN2CCC(C(N)=O)CC2)cc1 (stereo unspecified) | active: -81.6% |
| CC(C)(C)c1nc(CN2CCOCC2)cc(CN2CCOCC2)c1O | inconclusive: -30.1% |
| Cc1ccc(C)c(Cn2nc(-c3cc(C)ccc3C)ccc2=O)c1 | inconclusive: -40.8% |
| COc1ccc(NC(=O)Nc2cc(C)ccn2)cc1 | inconclusive: -47% |
| CCOc1ccc(-c2cc(C(=O)NCCOC)[nH]n2)c(C)c1 | inactive: 18.1% |
| C/C=C(\C)C(=O)NCCN1C2=NC[C@H](Cc3ccccc3)N2C[C@@H]1Cc1ccc(OC)cc1 | inconclusive: -30.5% |
| CCc1nn(CC(=O)Nc2ccc(Br)c(C)c2)c(=N)s1 | inconclusive: -39.2% |
| C/C(=N\NC(=O)C1CCCC1)c1ccc(Cl)cc1 | inconclusive: -30.5% |
| COCCCNC(=O)C[C@H]1C[C@H](C(=O)N(C(C)C)C(C)C)[C@@]2(C)c3[nH]c4cc(-c5ccco5)ccc4c3CCN2C1=O | inconclusive: -44.2% |

| Compound | activity change |
| --- | --- |
| COc1ccc(C2c3[nH]c4ccccc4c3CCN2C(=O)c2ccccc2C(C)=O)c(F)c1 (stereo unspecified) | inconclusive: -40.2% |
| COc1ccc(N2CCN(C(=S)Nc3ccc(C)cc3C)CC2)cc1 | inconclusive: -31.3% |
| COc1ccc(CCNC(=O)COC(=O)COc2c(C)cc(C)cc2C)cc1OC | inactive: 22% |
| Cc1ccc(NC(=S)N(Cc2ccco2)C(C)c2cccs2)c(Cl)c1 (stereo unspecified) | active: -71.1% |
| CCNC(=S)N(CCN(CC)CC)Cc1cc2cc3c(cc2[nH]c1=O)OCO3 | inconclusive: -46.8% |
| O=C(Cn1nnc(-c2ccccc2-n2cnnn2)n1)N1CCCCC1 | inactive: -4.47% |
| CN1CCN(C(=S)NC(=O)/C=C/c2cccc3ccccc23)CC1 | inactive: 13.5% |
| O=C(ONC(=O)C1C2C=CC(C2)C1C(=O)NOC(=O)c1ccccc1)c1ccccc1 (stereo unspecified) | inactive: -16.2% |
| Cc1ccc(NP(=O)(c2ccc(N(C)C)cc2NC(=O)c2cccs2)N2CCOCC2)cc1Cl (stereo unspecified) | inconclusive: -43.1% |
| CCOC(=O)N1CCC(N2CCCC(C(=O)c3cccc(OC(C)C)c3)C2)CC1 (stereo unspecified) | inconclusive: -49.9% |
| COc1ccccc1N1CCN(C(c2ccc(Cl)cc2)c2nnnn2C(C)(C)C)CC1 (stereo unspecified) | inconclusive: -39.9% |
| CC1Cc2ccccc2N1C(=O)CSc1nnc(-c2ccccc2)c(-c2ccccc2)n1 (stereo unspecified) | inconclusive: -39.4% |
| CSCCC(C(=O)NC(C)(C)C)n1c(-c2ccc(C)cc2)nc2ccccc21 (stereo unspecified) | inactive: 4.22% |
| CC(C)(C)OC(=O)N1CCC[C@H]1c1nnc(SCC(=O)Nc2ccc(Br)cc2)o1 | inactive: -10.4% |
| COc1ccccc1C(O)c1ncc(-c2cccc(C(F)(F)F)c2)[nH]1 (stereo unspecified) | inactive: -19.6% |
| Cc1cc(N/N=C/c2ccccc2O)nc(N2CCOCC2)n1 | inconclusive: -31.9% |
| CCc1ccc(NC(=O)c2cnn(-c3ccccc3)c2C)cc1 | inconclusive: -44.3% |
| Cc1ccc2nc(SCC(=O)Nc3ccc(F)cc3F)[nH]c2c1 | inconclusive: -45.9% |
| COc1ccc(NC(=O)c2cc(-c3cc(Cl)ccc3OC)n[nH]2)cc1OC | active: -64.7% |
| CCN(CC)CCCN(Cc1cc2cc3c(cc2[nH]c1=O)OCO3)C(=S)Nc1ccc(OC)cc1 | active: -71.4% |
| O=S(=O)(c1ccc2ccccc2c1)N1CCN(C(=S)Nc2ccccc2F)CC1 | inactive: -2.71% |
| CCCCCCC(=O)c1c(C)[nH]c(C(=O)OCC)c1C | inconclusive: -45.3% |

| Compound | activity change |
| --- | --- |
| COc1cc(/C=N\NC(=O)C2COc3ccccc3O2)cc(OC)c1O (stereo unspecified) | active: -70.8% |
| O=c1c(Cl)c(Cl)cnn1-c1ccccc1 | active: -98.8% |
| O=C(Nc1cccc(O)c1)c1noc2c1CCc1ccccc1-2 | active: -83.3% |
| Cc1ccc2nc(N(CCCN(C)C)C(=O)c3ccc4c(c3)CCCC4)sc2c1 | active: -99.6% |
| O=C(NNc1ccc(-c2csnn2)cc1)c1cc(Cl)cc(Cl)c1 | inconclusive: -36.1% |
| Cn1nc(C(F)(F)F)c(/C=N/OC(=O)c2ccccc2)c1SCc1ccccc1Cl | inconclusive: -37.4% |
| COc1cc(C(=O)Nc2nc3ccccc3[nH]2)cc(OC)c1OC | inconclusive: -35.2% |
| CC(NC(=O)c1ccc(C23CC4CC(CC(C4)C2)C3)cc1)C(=O)O (stereo unspecified) | inactive: 46.6% |
| Cc1nn(-c2ccccc2)c(C)c1/C=N/NC(=O)CSc1nnc(-c2ccccc2)n1-c1ccc(Cl)cc1 | inconclusive: -45.6% |
| CCOc1ccc(NC(=O)CSc2nc3nc4c(cc3c(=O)n2CC)COC(C)(C)C4)cc1 | inconclusive: -39.1% |
| Cc1ccccc1Cc1c(C)nc2c(C(=O)NCc3ccco3)cnn2c1C | inconclusive: -45.3% |
| COC(=O)C1=C(C)NC(=O)NC1c1ccsc1 (stereo unspecified) | inactive: 6.3% |
| CCC(=O)Oc1ccc(C(=O)Nc2ccc([N+](=O)[O-])cc2)cc1 | inconclusive: -39.2% |
| COc1cc(CNc2ccc(CNc3ncn[nH]3)cc2)ccc1OCc1ccccc1 | inconclusive: -32.9% |
| CCOCC(=O)Nc1ccc([N+](=O)[O-])cc1OC | active: -62% |
| Cc1cc2c(cc1C)N(Cc1ccccc1)C1=NCCCN12 | active: -58.1% |
| O=C(/C=C/c1cccc([N+](=O)[O-])c1)NCCSCc1ccc(Cl)cc1Cl | active: -74.9% |
| Cc1c(C(=O)NCc2cccc([N+](=O)[O-])c2)sc(=O)n1Cc1cccc(F)c1 | inconclusive: -41.8% |
| Cc1cc(C)c2nc(C)cc(Nc3ccc(C(=O)N4CCOCC4)cc3)c2c1 | active: -64.9% |
| COCCNC(=O)C(OC(=O)CC1Sc2ccccc2NC1=O)c1ccncc1 (stereo unspecified) | inactive: 32.6% |
